According to patent publication US20230149407A1, “Methods of Treating Coronavirus Disease 2019” (priority 2020, published 2023):

Test system: Covid-19 pneumonia

C[C@@H]1CCN(C(=O)CC#N)C[C@@H]1N(C)c1ncnc2[nH]ccc12 [tofacitinib, 3-((3R,4R)-4-Methyl-3-(methyl(7H-pyrrolo[2,3-d]pyrimidin-4-yl)amino)piperidin-1-yl)-3-oxopropanenitrile]
Cure (resolution of fever, cough, and need for ventilatory or oxygen support) (N = 144): 134 (93.1)
Death or respiratory failure at day 28 (N = 144): 6 (4.2)
Mortality until day 28 - no. (%) (N = 144): 4 (2.8) no. (%)
Respiratory failure until day 28 - no. (%) (N = 144): 22 (15.3) no. (%)
Status of being alive and not hospitalized (categories 7 to 8 of the ordinal scale) at day 14 (N = 144): 121 (84.0)
Status of being alive and not hospitalized (categories 7 to 8 of the ordinal scale) at day 28 (N = 144): 134 (93.1)
Status of being alive and not using mechanical ventilation or ECMO (categories 3 to 8 of the ordinal scale) at day 14 (N = 144): 135 (93.8)
Status of being alive and not using mechanical ventilation or ECMO (categories 3 to 8 of the ordinal scale) at day 28 (N = 144): 139 (96.5)
Status of being hospitalized, requiring supplemental oxygen (categories 1 to 4 of the ordinal scale) at day 28 (N = 144): 10 (6.9)
Status of being in the ICU or on ventilatory support at day 28 (N = 144): 4 (2.9)
NIAID ordinal scale at day 14, Distribution - no (%) (category 1): 2 (1.4) no (%)
NIAID ordinal scale at day 28, Distribution - no (%) (category 1): 4 (2.8) no (%)
NIAID ordinal scale at day 14, Distribution - no (%) (category 2): 7 (4.9) no (%)
NIAID ordinal scale at day 28, Distribution - no (%) (category 2): 1 (0.7) no (%)
NIAID ordinal scale at day 14, Distribution - no (%) (category 3): 1 (0.7) no (%)
NIAID ordinal scale at day 28, Distribution - no (%) (category 3): 1 (0.7) no (%)
NIAID ordinal scale at day 14, Distribution - no (%) (category 4): 7 (4.9) no (%)
NIAID ordinal scale at day 28, Distribution - no (%) (category 4): 4 (2.8) no (%)
NIAID ordinal scale at day 14, Distribution - no (%) (category 5): 5 (3.5) no (%)
NIAID ordinal scale at day 28, Distribution - no (%) (category 5): 0 (0) no (%)
NIAID ordinal scale at day 14, Distribution - no (%) (category 6): 1 (0.7) no (%)
NIAID ordinal scale at day 28, Distribution - no (%) (category 6): 0 (0) no (%)
NIAID ordinal scale at day 14, Distribution - no (%) (category 7): 11 (7.6) no (%)
NIAID ordinal scale at day 28, Distribution - no (%) (category 7): 5 (3.5) no (%)
NIAID ordinal scale at day 14, Distribution - no (%) (category 8): 110 (76.4) no (%)
NIAID ordinal scale at day 28, Distribution - no (%) (category 8): 129 (89.6) no (%)
Death or respiratory failure until day 28 - no. (%) (primary outcome, tofacitinib 10 mg twice daily up to 14 days, N = 144): 26 (18.1) no. (%)

Where two headings read alike, the source gives them in different places.
